Reference: the supplement of paper PMC4166925
± gives the standard deviation of the averaged measurements. The full ranking holds about 33,000 sequences; the median of “E-score (dimensionless, -0.5 to 0.5)” is about -0.049, and the highest 2% start at about 0.37. The list shows a part of the results.

Tested on: T1, PmTbr T-box DNA-binding domain (GST fusion)
T1 sequence: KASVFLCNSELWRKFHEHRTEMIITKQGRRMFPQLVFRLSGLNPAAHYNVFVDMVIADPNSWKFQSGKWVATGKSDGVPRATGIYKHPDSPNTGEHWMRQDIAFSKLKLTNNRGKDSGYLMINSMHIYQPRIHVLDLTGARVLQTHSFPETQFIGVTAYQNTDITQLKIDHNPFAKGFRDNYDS
Assay: PBM E-score of 8-mer (E-score (dimensionless, -0.5 to 0.5)); Tbr is Tbrain of the sea star Patiria miniata (Pm) or the sea urchin Strongylocentrotus purpuratus (Sp); higher = stronger binding preference; most listed sequences are background and not binding sites
Conditions: the construct has about 5 more residues each side
Method in brief: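 Using the Universal PBM Analysis Suite, every ungapped 8-mer received an enrichment E-score averaged over duplicate arrays. Probe intensities came from double-stranded Universal Agilent oligonucleotide arrays incubated with 200 nM GST-fused Tbr T-box DNA-binding domain in PBS (pH 7.5). That protein was expressed in BL21 E. coli at 20 °C and purified by glutathione affinity chromatography.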

Row | Sequence | PBM E-score of 8-mer
1 | ATCCGCGC | 0.15 ± 0.057
2 | TCCGCAGA | -0.123 ± 0.012
3 | AATCTCGG | -0.154 ± 0.099
4 | ACTCACCT | 0.277 ± 0.026
5 | AAAGAGCA | -0.2 ± 0.047
6 | GTTACCAA | 0.132 ± 0.073
7 | ACAGAGTC | -0.0931 ± 0.054
8 | GTTGCTCA | 0.0245 ± 0.051
9 | GAGTTTCC | -0.227 ± 0.046
10 | CGGGACAG | -0.0992 ± 0.082
11 | AGCGCCAA | 0.225 ± 0.013
12 | CCGAGAGA | -0.0578 ± 0.037
13 | CGGACAGC | -0.127 ± 0.094
14 | AACTCATA | -0.0686 ± 0.049
15 | AGTTATAT | -0.0486 ± 0.05
16 | ACGCGCGA | 0.3693 ± 0.0027
17 | GTACGAAA | 0.127 ± 0.066
18 | ACTCTAGG | -0.109 ± 0.012
19 | GAACTATA | -0.22 ± 0.041
20 | AGGGCCTG | -0.183 ± 0.029
21 | GAACATTA | -0.0348 ± 0.063
22 | ATTGCCTG | -0.196 ± 0.12
23 | AACTGATG | 0.0361 ± 0.047
24 | CACGGATG | 0.0888 ± 0.0054
25 | CCATCACA | 0.331 ± 0.023

Row | Sequence | PBM E-score of 8-mer
26 | AAGCGCCC | -0.0238 ± 0.0037
27 | AAAGGGTA | -0.131 ± 0.079
28 | TCAAATCA | -0.159 ± 0.042
29 | CGAGTCTA | -0.226 ± 0.063
30 | CAAGGGGA | -0.0708 ± 0.017
31 | AAAAACCT | -0.0792 ± 0.056
32 | CTGCCCGA | -0.0419 ± 0.069
33 | AGTATTAG | -0.0488 ± 0.059
34 | AGCAACCA | -0.0688 ± 0.013
35 | CGGTGACC | 0.08 ± 0.029
36 | AAATCGGC | -0.118 ± 0.01
37 | CAATGTCC | -0.128 ± 0.037
38 | ATCAGCCC | -0.282 ± 0.03
39 | CCATATTC | 0.000255 ± 0.05
40 | ACCTTCGG | 0.058 ± 0.028
41 | AAAGGAAA | -0.041 ± 0.03
42 | ATGTAACA | 0.101 ± 0.044
43 | CTCGGCGA | -0.0993 ± 0.029
44 | GTGTTTCA | 0.184 ± 0.031
45 | GCTATAAC | 0.0477 ± 0.024
46 | AGGAAGGC | -0.131 ± 0.03
47 | GCCTGAAC | -0.2927 ± 0.0014
48 | CCCCACCC | 0.043 ± 0.035
49 | CCCTACGC | 0.00649 ± 0.0033
50 | CTTCAGAA | -0.231 ± 0.037

Row | Sequence | PBM E-score of 8-mer
51 | GGGCCACC | -0.119 ± 0.054
52 | AAATCTAA | 0.0207 ± 0.011
53 | AGTTTTGA | 0.0783 ± 0.18
54 | ACTCCAAC | 0.0965 ± 0.02
55 | GATCCTCC | -0.00438 ± 0.035
56 | ACTCTAAT | -0.176 ± 0.017
57 | GCAGCAAA | -0.0315 ± 0.052
58 | GGGATTGA | -0.166 ± 0.017
59 | CGGGGGGC | -0.265 ± 0.051
60 | GGGCCCAA | -0.154 ± 0.022
61 | CACGTGTC | 0.385 ± 0.0079
62 | GTGCCAGA | 0.264 ± 0.0078
63 | GGTATGCA | -0.000535 ± 0.05
64 | CGGTATAC | -0.0592 ± 0.023
65 | AGAGGCCT | -0.304 ± 0.0057
66 | ATCGATGG | -0.127 ± 0.0068
67 | AAGGTTGC | -0.124 ± 0.038
68 | GCCTCACC | 0.0769 ± 0.049
69 | GGCTCGAC | -0.0066 ± 0.043
70 | CAGTATGC | -0.0463 ± 0.087
71 | TATCTCGA | -0.176 ± 0.061
72 | AGTGTAAA | 0.287 ± 0.081
73 | CGCTTGGA | -0.218 ± 0.0055
74 | GGCGTGTA | -0.00404 ± 0.066
75 | ATCGTAAA | -0.0188 ± 0.098

Row | Sequence | PBM E-score of 8-mer
76 | GCAACGCA | 0.175 ± 0.056
77 | CTGGGTGA | 0.0344 ± 0.14
78 | CGGTGTCC | -0.00395 ± 0.072
79 | TGCCCTAA | -0.202 ± 0.0062
80 | AAGATAAC | -0.0219 ± 0.03
81 | ACTTTTTA | -0.0453 ± 0.12
82 | GCAGCGCC | 0.188 ± 0.045
83 | ACGTAGCT | -0.0936 ± 0.084
84 | GCATAAAC | -0.0902 ± 0.15
85 | ATCCTGTC | 0.0676 ± 0.078
86 | ATAGCTCA | -0.199 ± 0.061
87 | AACATAGT | -0.245 ± 0.0077
88 | CACTAAGA | 0.0202 ± 0.013
89 | CGGGCCAA | -0.0985 ± 0.065
90 | AGCTGATA | 0.0126 ± 0.061
91 | AAAAAGAC | -0.0261 ± 0.09
92 | TCAGACGA | -0.314 ± 0.0055
93 | AAGAGGAC | -0.15 ± 0.031
94 | CACATCAC | 0.291 ± 0.023
95 | CTAAGTAC | -0.0284 ± 0.1
96 | AAGAGCGG | -0.123 ± 0.028
97 | AGAGCAAT | -0.215 ± 0.018
98 | TCACCCGA | 0.0689 ± 0.025
99 | CACCTTTC | 0.411 ± 0.034
100 | ATATTTAA | -0.214 ± 0.0091

Row | Sequence | PBM E-score of 8-mer
101 | GACATTGC | 0.0492 ± 0.027
102 | ATGGTCCC | -0.284 ± 0.0061
103 | CGGTACTC | -0.255 ± 0.024
104 | TACCATCA | -0.0204 ± 0.05
105 | ATAATAAA | -0.255 ± 0.029
106 | AGGGGACC | -0.326 ± 0.026
107 | CGCTTTGA | -0.2292 ± 0.0011
108 | CTAATACC | 0.00336 ± 0.027
109 | ATTAGTTG | -0.0682 ± 0.0052
110 | GCCTACTA | -0.0394 ± 0.049
111 | ACTAGTCC | -0.245 ± 0.081
112 | AACTCGCG | 0.291 ± 0.017
113 | GGGTAAGA | -0.279 ± 0.04
114 | GCGCAAGC | 0.00178 ± 0.048
115 | ACACCAGC | 0.325 ± 0.018
116 | ACGCTTAA | 0.0761 ± 0.011
117 | TAGACTCA | -0.14 ± 0.035
118 | ACTCGGTC | -0.199 ± 0.034
119 | CACAGCAA | 0.00532 ± 0.082
120 | ACTGCTAT | -0.0314 ± 0.0091
121 | GTCCCCGA | -0.155 ± 0.039
122 | CGACTCAA | 0.011 ± 0.024
123 | CGACGTAA | -0.133 ± 0.068
124 | ACCGGTAT | -0.0446 ± 0.018
125 | CGGTAAAC | -0.165 ± 0.1

Row | Sequence | PBM E-score of 8-mer
126 | AAGGTGGA | -0.0394 ± 0.074
127 | AATGGCGC | 0.143 ± 0.0098
128 | ATCCTGAA | 0.0691 ± 0.0076
129 | AGACATCG | -0.27283 ± 0.00013
130 | CGATTACA | 0.0563 ± 0.058
131 | ATGCCAAA | 0.0661 ± 0.086
132 | AGTCCATC | -0.166 ± 0.027
133 | TATCGGAA | -0.0916 ± 0.042
134 | AATCCCAG | -0.124 ± 0.028
135 | CTAGCGAC | 0.2 ± 0.013
136 | GTCGCTTA | 0.0744 ± 0.041
137 | GTGCCCTA | -0.188 ± 0.013
138 | CGTCGCGA | 0.204 ± 0.042
139 | ACCTGGCT | 0.189 ± 0.066
140 | AACATGAC | 0.0932 ± 0.043
141 | TCGGCTCA | -0.168 ± 0.031
142 | GAGTACGA | -0.0716 ± 0.025
143 | GCCATGGA | -0.141 ± 0.033
144 | GCAGTATA | -0.0728 ± 0.075
145 | AGACTGAT | -0.155 ± 0.0098
146 | GGTCGGTA | -0.162 ± 0.037
147 | CGGGGGCC | -0.0779 ± 0.03
148 | CACTCTGC | -0.00945 ± 0.013
149 | GTCCGTGA | -0.0686 ± 0.073
150 | CGTCAAGC | 0.114 ± 0.017

Row | Sequence | PBM E-score of 8-mer
151 | CAAGAAGG | -0.101 ± 0.039
152 | AATGTTCA | -0.0812 ± 0.057
153 | GTGGACCA | -0.271 ± 0.013
154 | GATTGCCC | -0.0679 ± 0.024
155 | CGTTTGTC | 0.0778 ± 0.0091
156 | ACTGCTTC | -0.18 ± 0.057
157 | CTAACCAC | 0.0529 ± 0.069
158 | AGGACTAG | -0.321 ± 0.03
159 | GATGCACC | -0.0938 ± 0.034
160 | TTCAAGAA | -0.172 ± 0.002
161 | CCGAATGC | -0.26 ± 0.0074
162 | TCCTAGCA | 0.0854 ± 0.013
163 | GGTTGTAA | -0.185 ± 0.08
164 | CGGGCCGA | -0.232 ± 0.096
165 | GCGGGGAA | 0.121 ± 0.002
166 | GAAGGCCC | -0.177 ± 0.028
167 | CCTTCCCG | -0.194 ± 0.074
168 | CTGCCAAG | -0.0294 ± 0.034
169 | AGAAAAAG | -0.161 ± 0.039
170 | AGTCAGGA | -0.1727 ± 0.00023
171 | AGGGAAGC | -0.32 ± 0.0069
172 | TCGAGAAA | 0.0491 ± 0.0063
